Source: the supplement of paper PMC8728848
Some of the results follow.

Legend:
Experiment in all cases: glycan array binding signal (z-score within array); higher = stronger binding
Details in all cases: glycan notation: IUPAC condensed, linker removed; mutation: R186S
[1] = molecular target: Fuc(a1-2)Gal
Outline: (§1)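 Arrays were curated from the Consortium for Functional Glycomics database, 3228 in total, and kept only where the protein sequence was available. Binding is expressed as a within-array Z-score. This score was averaged across arrays of the same protein sequence at different concentrations or buffers and across linkers, and negative values can be read as non-binding.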

[2] = molecular target: Fuc(a1-2)Gal(b1-3)GalNAc
Outline: as §1

[3] = molecular target: Fuc(a1-2)Gal(b1-3)GalNAc(a1-3)[Fuc(a1-2)]Gal(b1-4)Glc
Outline: as §1

[4] = molecular target: Fuc(a1-2)Gal(b1-3)GalNAc(a1-3)[Fuc(a1-2)]Gal(b1-4)GlcNAc
Outline: as §1

[5] = molecular target: Fuc(a1-2)Gal(b1-3)GalNAc(b1-3)Gal
Outline: as §1

[6] = molecular target: Fuc(a1-2)Gal(b1-3)GalNAc(b1-3)Gal(a1-4)Gal(b1-4)Glc
Outline: as §1

[7] = molecular target: Fuc(a1-2)Gal(b1-3)GalNAc(b1-4)[Neu5Ac(a2-3)]Gal(b1-4)Glc
Outline: as §1

[8] = molecular target: Fuc(a1-2)Gal(b1-3)GlcNAc
Outline: as §1

[9] = molecular target: Fuc(a1-2)Gal(b1-3)GlcNAc(b1-2)Man(a1-3)[Fuc(a1-2)Gal(b1-3)GlcNAc(b1-2)Man(a1-6)]Man(b1-4)GlcNAc(b1-4)GlcNAc
Outline: as §1

[10] = molecular target: Fuc(a1-2)Gal(b1-3)GlcNAc(b1-3)Gal(b1-4)Glc
Outline: as §1

[11] = molecular target: Fuc(a1-2)Gal(b1-3)GlcNAc(b1-3)[Fuc(a1-3)[Gal(b1-4)]GlcNAc(b1-6)]Gal(b1-4)Glc
Outline: as §1

[12] = molecular target: Fuc(a1-2)Gal(b1-3)[Fuc(a1-4)]GlcNAc
Outline: as §1

[13] = molecular target: Fuc(a1-2)Gal(b1-3)[Fuc(a1-4)]GlcNAc(b1-2)Man(a1-3)[Fuc(a1-2)Gal(b1-3)[Fuc(a1-4)]GlcNAc(b1-2)Man(a1-6)]Man(b1-4)GlcNAc(b1-4)GlcNAc
Outline: as §1

[14] = molecular target: Fuc(a1-2)Gal(b1-3)[Fuc(a1-4)]GlcNAc(b1-3)[Fuc(a1-3)[Gal(b1-4)]GlcNAc(b1-6)]Gal(b1-4)Glc
Outline: as §1

[15] = molecular target: Fuc(a1-2)Gal(b1-3)[Fuc(a1-4)]GlcNAc(b1-3)[Gal(b1-4)GlcNAc(b1-6)]Gal(b1-4)Glc
Outline: as §1

[16] = molecular target: Fuc(a1-2)Gal(b1-4)Glc
Outline: as §1

[17] = molecular target: Fuc(a1-2)Gal(b1-4)Glc6S
Outline: as §1

[18] = molecular target: Fuc(a1-2)Gal(b1-4)GlcNAc
Outline: as §1

[19] = molecular target: Fuc(a1-2)Gal(b1-4)GlcNAc(b1-2)Man(a1-3)[Fuc(a1-2)Gal(b1-4)GlcNAc(b1-2)Man(a1-6)]Man(b1-4)GlcNAc(b1-4)GlcNAc
Outline: as §1

[20] = molecular target: Fuc(a1-2)Gal(b1-4)GlcNAc(b1-3)Gal(b1-4)GlcNAc
Outline: as §1

[21] = molecular target: Fuc(a1-2)Gal(b1-4)GlcNAc(b1-3)Gal(b1-4)GlcNAc(b1-3)Gal(b1-4)GlcNAc
Outline: as §1

[22] = molecular target: Fuc(a1-2)Gal(b1-4)GlcNAc(b1-3)GalNAc
Outline: as §1

[23] = molecular target: Fuc(a1-2)Gal(b1-4)GlcNAc6S
Outline: as §1

[24] = molecular target: Fuc(a1-2)Gal(b1-4)[Fuc(a1-3)]GlcNAc
Outline: as §1

[25] = molecular target: Fuc(a1-2)Gal(b1-4)[Fuc(a1-3)]GlcNAc(b1-2)Man(a1-3)[Fuc(a1-2)Gal(b1-4)[Fuc(a1-3)]GlcNAc(b1-2)Man(a1-6)]Man(b1-4)GlcNAc(b1-4)GlcNAc
Outline: as §1

[26] = molecular target: Fuc(a1-2)Gal(b1-4)[Fuc(a1-3)]GlcNAc(b1-3)Gal(b1-4)[Fuc(a1-3)]GlcNAc
Outline: as §1

[27] = molecular target: Fuc(a1-2)Gal(b1-4)[Fuc(a1-3)]GlcNAc(b1-3)Gal(b1-4)[Fuc(a1-3)]GlcNAc(b1-3)Gal(b1-4)[Fuc(a1-3)]GlcNAc
Outline: as §1

[28] = molecular target: Fuc(a1-2)Gal6S(b1-4)Glc
Outline: as §1

[29] = molecular target: Fuc(a1-2)Gal6S(b1-4)Glc6S
Outline: as §1

[30] = molecular target: Fuc(a1-2)Gal6S(b1-4)GlcNAc
Outline: as §1

[31] = molecular target: Fuc(a1-2)[Gal(a1-3)]Gal
Outline: as §1

[32] = molecular target: Fuc(a1-2)[Gal(a1-3)]Gal(b1-3)GlcNAc
Outline: as §1

[33] = molecular target: Fuc(a1-2)[Gal(a1-3)]Gal(b1-3)GlcNAc(b1-2)Man(a1-3)[Fuc(a1-2)[Gal(a1-3)]Gal(b1-3)GlcNAc(b1-2)Man(a1-6)]Man(b1-4)GlcNAc(b1-4)GlcNAc
Outline: as §1

[34] = molecular target: Fuc(a1-2)[Gal(a1-3)]Gal(b1-4)Glc
Outline: as §1

[35] = molecular target: Fuc(a1-2)[Gal(a1-3)]Gal(b1-4)GlcNAc
Outline: as §1

[36] = molecular target: Fuc(a1-2)[Gal(a1-3)]Gal(b1-4)GlcNAc(b1-2)Man(a1-3)[Fuc(a1-2)[Gal(a1-3)]Gal(b1-4)GlcNAc(b1-2)Man(a1-6)]Man(b1-4)GlcNAc(b1-4)GlcNAc
Outline: as §1

[37] = molecular target: Fuc(a1-2)[Gal(a1-3)]Gal(b1-4)[Fuc(a1-3)]GlcNAc
Outline: as §1

[38] = molecular target: Fuc(a1-2)[Gal(a1-4)]Gal(b1-4)GlcNAc
Outline: as §1

[39] = molecular target: Fuc(a1-2)[GalNAc(a1-3)]Gal
Outline: as §1

[40] = molecular target: Fuc(a1-2)[GalNAc(a1-3)]Gal(b1-3)GalNAc(a1-3)[Fuc(a1-2)]Gal(b1-4)GlcNAc
Outline: as §1

[41] = molecular target: Fuc(a1-2)[GalNAc(a1-3)]Gal(b1-3)GlcNAc
Outline: as §1

[42] = molecular target: Fuc(a1-2)[GalNAc(a1-3)]Gal(b1-3)GlcNAc(b1-2)Man(a1-3)[Fuc(a1-2)[GalNAc(a1-3)]Gal(b1-3)GlcNAc(b1-2)Man(a1-6)]Man(b1-4)GlcNAc(b1-4)GlcNAc
Outline: as §1

[43] = molecular target: Fuc(a1-2)[GalNAc(a1-3)]Gal(b1-4)Glc
Outline: as §1

[44] = molecular target: Fuc(a1-2)[GalNAc(a1-3)]Gal(b1-4)GlcNAc
Outline: as §1

[45] = molecular target: Fuc(a1-2)[GalNAc(a1-3)]Gal(b1-4)GlcNAc(b1-2)Man(a1-3)[Fuc(a1-2)[GalNAc(a1-3)]Gal(b1-4)GlcNAc(b1-2)Man(a1-6)]Man(b1-4)GlcNAc(b1-4)GlcNAc
Outline: as §1

B1: Gal 3 (Homo sapiens), P17931 (protein)
chain: MADNFSLHDALSGSGNPNPQGWPGAWGNQPAGAGGYPGASYPGAYPGQAPPGAYPGQAPPGAYHGAPGAYPGAPAPGVYPGPPSGPGAYPSSGQPSAPGAYPATGPYGAPAGPLIVPYNLPLPGGVVPRMLITILGTVKPNANILDFQRGNDVAFHFNPRFNENNRRVIVCNTKLDNNWGREESQSVFPFESGKPFKIQVLVEPDHFKVAVNDAHLLQYNHRVKKLNEISKLGISGDIDLTSASYTMI
B1 was tested, and the “glycan array binding signal (z-score)” value [1] was -0.048, the “glycan array binding signal (z-score)” value [2] was -0.05 and the “glycan array binding signal (z-score)” value [3] was -0.044. For the same binder, the “glycan array binding signal (z-score)” value [4] was -0.036, the “glycan array binding signal (z-score)” value [5] was -0.045 and the “glycan array binding signal (z-score)” value [6] was -0.052. The “glycan array binding signal (z-score)” value [7] was -0.057, the “glycan array binding signal (z-score)” value [8] was -0.06 and the “glycan array binding signal (z-score)” value [9] was -0.047. For the same binder, the “glycan array binding signal (z-score)” value [10] was -0.052, the “glycan array binding signal (z-score)” value [11] was -0.073 and the “glycan array binding signal (z-score)” value [12] was -0.026. The “glycan array binding signal (z-score)” value [13] was -0.074, the “glycan array binding signal (z-score)” value [14] was -0.061 and the “glycan array binding signal (z-score)” value [15] was -0.092. For the same binder, the “glycan array binding signal (z-score)” value [16] was -0.07, the “glycan array binding signal (z-score)” value [17] was -0.047 and the “glycan array binding signal (z-score)” value [18] was -0.054. The “glycan array binding signal (z-score)” value [19] was -0.017, the “glycan array binding signal (z-score)” value [20] was -0.065 and the “glycan array binding signal (z-score)” value [21] was 0.012. The “glycan array binding signal (z-score)” value [22] was -0.04, the “glycan array binding signal (z-score)” value [23] was -0.046 and the “glycan array binding signal (z-score)” value [24] was -0.052. For the same binder, the “glycan array binding signal (z-score)” value [25] was 0.064, the “glycan array binding signal (z-score)” value [26] was -0.047 and the “glycan array binding signal (z-score)” value [27] was -0.032. For the same binder, the “glycan array binding signal (z-score)” value [28] was -0.049, the “glycan array binding signal (z-score)” value [29] was -0.101 and the “glycan array binding signal (z-score)” value [30] was -0.055. The “glycan array binding signal (z-score)” value [31] was -0.062, the “glycan array binding signal (z-score)” value [32] was -0.059 and the “glycan array binding signal (z-score)” value [33] was 19.8. The “glycan array binding signal (z-score)” value [34] was -0.083, the “glycan array binding signal (z-score)” value [35] was -0.051 and the “glycan array binding signal (z-score)” value [36] was 0.619. For the same binder, the “glycan array binding signal (z-score)” value [37] was 0.013, the “glycan array binding signal (z-score)” value [38] was -0.03 and the “glycan array binding signal (z-score)” value [39] was -0.006. For the same binder, the “glycan array binding signal (z-score)” value [40] was -0.04, the “glycan array binding signal (z-score)” value [41] was -0.009 and the “glycan array binding signal (z-score)” value [42] was 0.242. For the same binder, the “glycan array binding signal (z-score)” value [43] was -0.056, the “glycan array binding signal (z-score)” value [44] was -0.022 and the “glycan array binding signal (z-score)” value [45] was -0.024.
